# Reference: PubChem BioAssay AID2451 (National Center for Advancing Translational Sciences (NCATS), 2010)
# Screen size: about 290,000 compounds; about 2,100 (0.72%) were called active. The inconclusive results got no clear call from the source; some entries with a clear call stand among them for comparison. Calls come from the whole dose curve; as a rule, active = well fitted inhibition curve with a large enough effect; inconclusive = small, poorly fitted or top-dose-only effect, or effect the other way; inactive = flat fitted curve, though single readings scatter. Potencies of inconclusive entries are doubtful fits and often do not repeat.
# Target: Fructose-bisphosphate aldolase (Giardia intestinalis (strain ATCC 50803 / WB clone C6)) (UniProt A8B2U2)
# Assay: qHTS Assay for Inhibitors of Fructose-1,6-bisphosphate Aldolase from Giardia Lamblia; note: nearly all actives have a fitted effect of over 55% in size
# Settings: purified Giardia FBPA; activity, negative = inhibition: at 59.6 µM (top of the series) unless noted
# Method in brief: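 Giardia FBPA (40 nM reagent) was preincubated 10 min at RT with compound (up to 57.5 uM final), then substrate plus GAPDH/TPI/NAD/arsenate coupling system with diaphorase/resazurin was added; resorufin fluorescence (525/598 nm) was read after 20 min.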
# % is set by controls: 0 for no effect and ±100 for the full control effect; potency is the fitted concentration of half-maximal effect; tags give direction and shape of the fitted curve.
# UniProt A8B2U2, sequence (A8B2U2 whole entry, looked up): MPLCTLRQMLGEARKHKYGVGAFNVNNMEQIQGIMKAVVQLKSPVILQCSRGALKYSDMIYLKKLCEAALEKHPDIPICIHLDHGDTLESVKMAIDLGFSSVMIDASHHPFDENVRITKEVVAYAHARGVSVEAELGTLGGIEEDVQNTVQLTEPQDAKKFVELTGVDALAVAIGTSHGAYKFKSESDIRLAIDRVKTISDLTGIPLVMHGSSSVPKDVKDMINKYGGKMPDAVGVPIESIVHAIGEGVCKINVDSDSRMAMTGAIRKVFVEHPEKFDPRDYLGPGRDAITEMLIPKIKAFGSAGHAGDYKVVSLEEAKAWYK
Structure (SMILES),Potency,"activity, negative = inhibition"
COc1ccc(-c2csc(N3CCN(c4cc5c(cc4Cl)nc(-c4ccncc4)n5CCOCCO)CC3)n2)cc1,"inconclusive: 20 µM [inhibitor, partial curve]",–
O=C1CCCCCN1CSc1nc2ccccc2s1,"inconclusive: 17.7 µM [activator, single point]",–
Cc1cccc(NC(=O)c2cc3c(n(-c4ccccc4)c2=O)CCCC3=O)n1,"inconclusive: 44.6 µM [inhibitor, single point]",–
Cc1ccc(OCc2ccccc2C)c([N+](=O)[O-])n1,–,inactive: -4.43%
CCN(/N=C/c1cccs1)c1cc(=O)n(C)c(=O)[nH]1,"inconclusive: 17.7 µM [inhibitor, single point]",–
O=C(c1ccco1)n1nc(-c2ccco2)nc1SCc1ccccc1,–,inactive: -2.55%
COC/C=C/C1=CC2=CC(=O)C(C)(OC(=O)c3cnc4ccccc4n3)C(=O)C2=CN1C1CC1 (stereo unspecified),"inconclusive: 0.998 µM [inhibitor, partial curve]",–
Cn1cc(/C=N/NC(=O)c2ccc(C#N)cc2F)c2ccccc21,"inconclusive: 17.7 µM [inhibitor, single point]",–
Cc1cc(C(=O)CN2C(=O)NC3(CCCCC3)C2=O)c(C)n1-c1ccc2c(c1)OCO2,–,inactive: 3.08%
CCn1c(SCC(=O)c2ccc(O)c(O)c2)nnc1-c1ccc(C)cc1,"inconclusive: 0.561 µM [inhibitor, full curve]",–
O=C1NC2(CCCCCC2)C(=O)N1Cc1cccc(Cl)c1,–,inactive: 0.041%
COCCCNC(=O)c1c(N)n(-c2ccc3c(c2)OCO3)c2nc3ccccc3nc12,"inconclusive: 2.81 µM [inhibitor, full curve]",–
Cc1ccc(NC(=O)Nc2ccc(Cl)cn2)cc1,–,inactive: -0.373%
O=C(c1coc(=O)c(Br)c1)N1CCCc2ccccc21,"inconclusive: 9.98 µM [inhibitor, partial curve]",–
O=C(O)CSc1nnc(SCc2cccc3ccccc23)s1,"inconclusive: 17.7 µM [activator, single point]",–
CCCN(CCC)CC(C)(C)NS(=O)(=O)c1ccc(Cl)cc1,"inconclusive: 15.8 µM [inhibitor, partial curve]",–
Cc1cccc(NNC(N)=S)c1,active: 19.9 µM,–
O=C(CN1C(=O)S/C(=C\C=C\c2ccccc2)C1=O)Nc1ccc(O)cc1,–,inactive: -0.812%
CCN1CCN(Cc2c(C(=O)N/N=C(\C)c3ccc(Cl)c(Cl)c3)nnn2-c2nonc2N)CC1,"inconclusive: 35.5 µM [inhibitor, single point]",–
CCCOc1ccc(C(C)=O)cc1Cc1c(O)[nH]c(=S)[nH]c1=O,"inconclusive: 17.8 µM [inhibitor, partial curve]",–
CCOc1ccc(N2C(=O)C(c3ccccc3)=C(c3nc4ccccc4s3)C2NC(C)=O)cc1 (stereo unspecified),–,inactive: -1.84%
Cc1cc(C)c(OCC(=O)Nc2nc(-c3ccccn3)cs2)c(C)c1,"inconclusive: 35.4 µM [inhibitor, single point]",–
O=C(CSc1cccc2cccnc12)N/N=C/c1cccnc1,"inconclusive: 17.7 µM [inhibitor, single point]",–

Structure (SMILES),Potency,"activity, negative = inhibition"
COC(=O)c1cn(NC(=O)c2cnccn2)c(=O)c2ccccc12,"inconclusive: 25.1 µM [inhibitor, single point]",–
Cc1ccc(S(=O)(=O)NC(=O)c2ccc(-c3ccc(C)c4ccccc34)o2)cc1,–,inactive: 2.89%
NC(=O)C1CCN(C(=O)CCC(=O)N2CCOc3ccc(Cl)cc32)CC1,–,inactive: 5.04%
CCn1c(CSc2nnc3ccccn23)nc2cc(C(=O)O)ccc21,–,inactive: -27.7%
CCOC(=O)N1CCN(C(=O)CCn2c(=S)[nH]c3ccsc3c2=O)CC1,"inconclusive: 15.8 µM [inhibitor, single point]",–
Cc1sc2nc(SCC(=O)N3CCOCC3)[nH]c(=O)c2c1-c1ccccc1,"inconclusive: 28.2 µM [inhibitor, partial curve]",–
N#CC1=C(N)SC(N)=C(C#N)C1c1ccoc1,"inconclusive: 7.06 µM [inhibitor, partial curve]",–
CCOC(=O)c1c(NC(=O)C2CCCCC2)sc2c1CCN(C(C)C)C2,"inconclusive: 25.1 µM [inhibitor, partial curve]",–
C[C@H](N)C(=O)N1CCC(C(=O)N[C@@H](Cc2ccccc2)C(=O)Nc2ccc(F)cc2)CC1,active: 15.8 µM,–
Cc1nn(C)c(=O)n1-c1ccc(OCc2ccccc2)cc1,–,inactive: 7.39%
Cn1c(Cn2cnc3ccccc32)nc2ccccc21,–,inactive: -0.773%
COc1ccc(CNc2ncc(-c3cccc([N+](=O)[O-])c3)n2C)c(OC)c1OC,active: 25.1 µM,–
O=C(N/N=C/c1cc(Br)ccc1O)c1ccccc1Cl,"inconclusive: 5 µM [inhibitor, full curve]",–
COc1ccc(OC)c(NC(=O)CN(C)CC(=O)Nc2ccccc2Br)c1,active: 17.7 µM,–
CC1CCc2cc(F)cc3c(O)c(C(=O)NCC4CCCO4)c(=O)n1c23 (stereo unspecified),"inconclusive: 19.9 µM [inhibitor, single point]",–
O=C(N/N=C/C=C/c1ccccc1)c1ccncc1,"inconclusive: 17.7 µM [inhibitor, single point]",–
O=C(CCNC(=O)Cn1ccc2ccccc2c1=O)NCCN1CCc2ccccc2C1,"inconclusive: 17.7 µM [inhibitor, single point]",–
CCN(CC)S(=O)(=O)c1cccc(-c2n[nH]c(=S)n2/N=C/c2ccc(OC(F)F)cc2)c1,"inconclusive: 17.7 µM [activator, single point]",–
Cc1ccc(NCC(O)C(O)C(O)CO)cc1C (stereo unspecified),"inconclusive: 17.7 µM [inhibitor, single point]",–
Cc1nc(N)sc1-c1csc(Nc2ccccn2)n1,"inconclusive: 1.26 µM [inhibitor, full curve]",–
CCCc1c(C)[nH]c2ccc(C(=O)O)cc2c1=S,"inconclusive: 17.7 µM [inhibitor, single point]",–
CC(C)c1ccccc1OCCCN1CCCC1,"inconclusive: 22.4 µM [inhibitor, single point]",–
O=C(Nc1nnc(-c2ccc3c(c2)CCCC3)o1)c1ccccc1Cl,"inconclusive: 15.8 µM [activator, single point]",–
